The values that follow come from PMC12136788.

The list shows a part of the results.

The labels stand for the following.
T1: UNK ZnF1-3 (human, UniProt Q9C0B0 31-174)
T1 sequence: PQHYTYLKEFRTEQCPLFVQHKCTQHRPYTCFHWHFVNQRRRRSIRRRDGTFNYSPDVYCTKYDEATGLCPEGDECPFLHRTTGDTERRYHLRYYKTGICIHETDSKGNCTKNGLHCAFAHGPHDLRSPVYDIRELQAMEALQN

B1: 54187742_54188414_594_3pUTR_ENSMUSG00000021474_ENSMUST00000021930|mouse|control|control (ssRNA)
RNA: GGGAGUUCUACAGUCCGACGAUCUACAGCAGCGAAGGGAACAAAACGUCCUAUCAGUGGGGAGACACGCUUGGUUAAGGCAUUGAGUCCUAGGGCCGUUGCCACAGCGCCAGUGGUUGCAGAAACAUAAGCCGUUCCCAGCUCCAACAGAGGAUUGAGCAUCA
B2: chr16:2814526:2814527:+_ENSG00000167978_ENST00000301740|hu_mus|motif|central (ssRNA)
RNA: GGGAGUUCUACAGUCCGACGAUCAACCUCAGGAGAAAAGCCAGUAUUUACUUCUGAAACAGGGCCUGAGUUUUUAAACUCGGAAGAUGACUCAAAGCUAUUCUCCCUUGGGGGAGAAUGAGAUAGUUCUUUAUGCUCUGGAGACAACAGAGGAUUGAGCAUCA
B3: chr3:10015032:10015033:+_ENSMUSG00000027533_ENSMUST00000029046|mus_mus|mus_mus_mus_hu_True|1_98 (ssRNA)
RNA: GGGAGUUCUACAGUCCGACGAUCGUUUUUACCAUCACACGUAAUGAUACAAUCUGGCUUGGCCAUUGCGCCCAUUUUUCGCAAAGCUAUUCCCACUCCUAGCUCCUUCAUGUAUUCAUCAAAGCCUUUGCUGUCCAUCAGGCGCAACAGAGGAUUGAGCAUCA
B4: 65274669_65274789_651_3pUTR_ENSMUSG00000051675_ENSMUST00000050850|mouse|control|control (ssRNA)
RNA: GGGAGUUCUACAGUCCGACGAUCUUAUACCUUGCCUGAAGAUCCCUGGAGACGCCCUCCAAGGCUGCCUUCCUCCUCUGCAGCUCUCCAGUAAGUUCCCUUAGACGAGUCAACUUCUCCCCGAAGUCCCUCCGCCGCUCCUCACAACAGAGGAUUGAGCAUCA
B5: chr11:72491332:72491333:+_ENSMUSG00000020794_ENSMUST00000021148|perfect_dup|FALSE|FALSE (ssRNA)
RNA: GGGAGUUCUACAGUCCGACGAUCAGCAUCAACAUUAGCAGGUGAGUCUCCAUUAGGGUCUGCCAGCAUAGAAAUGACACUAAUCAUGAUGGUUUCCACAGUGUGGAUAGGGAGCCAGCGUUCCUCUGGCUUUUCAUAACCAUACAACAGAGGAUUGAGCAUCA
B6: chr8:117878989:117878990:-_ENSG00000164754_ENST00000297338|hu_hu|hu_hu_hu_mus_True|58_58 (ssRNA)
RNA: GGGAGUUCUACAGUCCGACGAUCCCAGAGGCCCUCGUUUACUGAGGACAAAAUGUGCGUAGAACAUUUUUCUUAUUGGCUAUGAAAUAAGAAGAAACCUGGAUCUCGGCGGGGAGCCGGGAGGGGUGGGUGGCCCGGGGAGGGCAACAGAGGAUUGAGCAUCA
B7: chr6:55002191:55002192:+_ENSMUSG00000029777_ENSMUST00000003572|mus_hu|motif|central (ssRNA)
RNA: GGGAGUUCUACAGUCCGACGAUCAUGGUCAGCACGAAAACAUUCUCCAUUUUUUACGUCUUUCACCAUGAAGUCAGCAAAUUUGUCGGCAUGGCCAGAGGUCUUUAAAACUGGCUCAGGGGUGAGCAUGGUGCAAUCGAUCUCCAACAGAGGAUUGAGCAUCA
B8: chr2:48026839:48026840:+_ENSG00000116062_ENST00000540021|hu_hu|hu_hu_hu_mus_False|38_58 (ssRNA)
RNA: GGGAGUUCUACAGUCCGACGAUCAUAGUGAGCCACUAGCGUCCUAAAUCUGGAACAGUGGCGGUCAUCCGAAAACUGACCUAUGAAAAACUUGCCCAGUGAAGUAUCCACAAAGCAAACACCAUACACACGAGUGUGACCAGACAACAGAGGAUUGAGCAUCA
B9: chr17:49627581:49627582:-_ENSMUSG00000040260_ENSMUST00000057610|mus_hu|FALSE|FALSE (ssRNA)
RNA: GGGAGUUCUACAGUCCGACGAUCAUUUUCAUGUUGCCGGAGCUUGUCAAUCACAGGCUGUAUACCCAGCAUCAGGAAUUCAUACCGUAGAUGUAGGCGGAACUCCAGAUUAUCCUCUCCAGCUCCAGCAUUGAGGACAGCAUUCAACAGAGGAUUGAGCAUCA
B10: chr5:137527996:137527997:-_ENSG00000094880_ENST00000394886|hu_hu|FALSE|FALSE (ssRNA)
RNA: GGGAGUUCUACAGUCCGACGAUCUUCUCCUAAAGCAACCAGCAUGCGAGAAUCAUUGGGUCGAAGCUGGUGGGCCCGUCUAUAAUAAUAAAGGCAGUAAAAUGGCAUCUUAAGGAUUUCAUAGGUCUGCCCGAGGCCAUACCACAACAGAGGAUUGAGCAUCA
B11: chr18:52893488:52893489:-_ENSG00000196628_ENST00000354452|hu_hu|hu_hu_hu_mus_True|48_98 (ssRNA)
RNA: GGGAGUUCUACAGUCCGACGAUCUAUUUAGACCAUUUCAAUGGAUUUAUGGCAUUUACUCAGUGCUGAUAGGUGGAAAAACUACUUGAACAGGGAUUUUUUUUUUCCUUAAUACAUGCCAAGAUUGUGUGGCUGUCAAAACAGCAACAGAGGAUUGAGCAUCA
B12: chr1:46159212:46159213:+_ENSG00000159596_ENST00000372025|hu_mus|hu_hu_hu_mus_True|28_68 (ssRNA)
RNA: GGGAGUUCUACAGUCCGACGAUCUCUGAUCCCUCCCAAGAAAGCUAGGAAACCGGCUCCAUAAGCCAUCUGAGUAAAAGCUAGGACGGGGAUAUAAGACUUUGUUAUCAGCAUGACAAGUGGGGGAGCAGUAAAGGGGAUUAACAACAGAGGAUUGAGCAUCA
B13: chr2:217001844:217001845:+_ENSG00000079246_ENST00000392132|hu_hu|hu_hu_hu_mus_False|68_98 (ssRNA)
RNA: GGGAGUUCUACAGUCCGACGAUCACCAACUUGAGGAUUAGCUCUUUUGUCAUAAGCAUAUCGGACGAUGGCCACCAUGUUUAACUCAUCCAAAGCAUGAACGAGAGAGGAAAGGGCAACAGCUGCCGCCUCAUCAUCCUUUGCCAACAGAGGAUUGAGCAUCA
B14: chr22:41863543:41863544:-_ENSG00000100410_ENST00000216252|hu_mus|FALSE|FALSE (ssRNA)
RNA: GGGAGUUCUACAGUCCGACGAUCGGCAUCGGAGACUCCGGGGCCGCCACAGAUUACACACCGGCCCUGGUAAGAUCCAUAGUUACACUCAUCACAUAUGCGGACCAGGGUGCAGGGACGCACGUAGGAAUCACAGAUCACACACAACAGAGGAUUGAGCAUCA
B15: 23167715_23171204_679_CDS_ENSMUSG00000020290_ENSMUST00000020538|mouse|control|control (ssRNA)
RNA: GGGAGUUCUACAGUCCGACGAUCUUCACACUGGUUCCUUGGAAGGAUCUUCCACCUUGUUUUGAUCACAUUUUCCAAAAUCUGUAGUCCAUAGUAUUUCGUGUUCAUGUUCUGCGAAAACUCCAAUAUUGUGUCGACCCGUGUCAACAGAGGAUUGAGCAUCA
B16: chr11:105132459:105132460:+_ENSMUSG00000020694_ENSMUST00000015107|mus_mus|motif|central (ssRNA)
RNA: GGGAGUUCUACAGUCCGACGAUCGAUCUUGGAAAGACCAAAAUCUGUAAUUUUUAUCUCUCCACAUGCUGUACCAUUUACGGAAAGGAUAUUACCUGGUUUGAGGUCAUAGUGUAUGAUGGGAGGUUUUAUUUCAUUUAAGUACAACAGAGGAUUGAGCAUCA
B17: chrX:140365796:140365797:-_ENSMUSG00000031285_ENSMUST00000033642|mus_mus|mus_mus_mus_hu_False|8_28 (ssRNA)
RNA: GGGAGUUCUACAGUCCGACGAUCCUUCUCAUUACUCAGUGCCUGCAAGGUUCUGGUUCGGUAGAAGCUACAGUGGGCGCUGUGAGUGGGGCUAGGCAACCCAUUCAUCCGUGACCCUCGCAUGUUCCUAGAUGCUUUAUCUCUCAACAGAGGAUUGAGCAUCA
B18: chr15:31520727:31520728:-_ENSMUSG00000022234_ENSMUST00000022842|mus_mus|motif|central (ssRNA)
RNA: GGGAGUUCUACAGUCCGACGAUCAGUUUAUUCUUCAGAUUCUCCAGGCUUACGGAUGUCAUCAAUCUUCAGAAUCAUCCGGACCAUCUGGGUGGCAAGAGAGAUCUGCUGCUUUUUGCCAAUCAAGGUUUCUAUGACAUGCUGCAACAGAGGAUUGAGCAUCA
B19: chr6:118368571:118368572:-_ENSMUSG00000030138_ENSMUST00000032237|mus_hu|FALSE|FALSE (ssRNA)
RNA: GGGAGUUCUACAGUCCGACGAUCAUCCUGCAGAAGCCGCUUCUUUUUCUUUGCAGCUUUGGGUCCACUGUUUUUCUUUCUGUGUUUCUUCUGGUCCUUAGCCUCCAUAGUGGCUAUUUACCAAUAACAAGUAACUCUAACCUGCAACAGAGGAUUGAGCAUCA
B20: 242098753_242099861_505_CDS_ENSG00000115685_ENST00000406106|human|control|control (ssRNA)
RNA: GGGAGUUCUACAGUCCGACGAUCGCUUAAGUUCUCAAUUUUACUGAUUUUAUUGUUGACCAAGAAGAGUUUUUUCAGUCGUGUCAACUUGUCAACCCCUUCGAUGUUUCUCAGCAGAUUAAAAGAAAUAUCUAGAAUCUCCAGCAACAGAGGAUUGAGCAUCA
B21: chrX:148369136:148369137:+_ENSMUSG00000025261_ENSMUST00000112622|mus_mus|FALSE|FALSE (ssRNA)
RNA: GGGAGUUCUACAGUCCGACGAUCCCUGUAAAGGCUACUGCCUUCUUAACACAUGGGGUGGGGAUCAUGGACGGCAUGGAAAAGGGAGAGGCGAGGAAAGGGGAGACAAAAGAGAAUGAGAAGCGAACAGGUAUGCACUAGGGACAACAGAGGAUUGAGCAUCA
B22: chr2:9570881:9570882:+_ENSG00000119203_ENST00000238112|hu_mus|hu_hu_hu_mus_False|28_88 (ssRNA)
RNA: GGGAGUUCUACAGUCCGACGAUCACUUGUCUUCUGAAGGAACCAGGGCAGAGCUCCACAGUGAUCCAAAUGGAAAUGACUGAUCAACAGAAGGUCGAUCUCAGCUGGGUCAAUUAAGUCAAUGUAAGGAAGGGCAUCCAUUCCCAACAGAGGAUUGAGCAUCA

The target in this test is T1, UNK ZnF1-3. The test can be described thus: nsRBNS (natural sequence RNA bind-n-seq); RBNS binding buffer (assumed for nsRBNS): 25 mM Tris pH 7.5, 150 mM KCl, 3 mM MgCl2, 0.01% Triton X-100, 500 ug/ml BSA, 20 U/ml SUPERase-In, 4 C; UNK is unkempt and MSI1 is Musashi-1; names of the RNAs are library labels; protein concentration not given here; high values mean tight binding.
In turn, B1 displayed a binding signal of 1.04 enrichment R.
In turn, B2 registered a binding signal of 1.34 enrichment R.
In the case of B3 it was 0.768 enrichment R; in that of B4, 0.944 enrichment R; in that of B5, 1.17 enrichment R.
In the case of B6 it was 1.56 enrichment R; in that of B7, 0.785 enrichment R.
In the case of B8 it was 1.06 enrichment R; in that of B9, 0.878 enrichment R.
Molecule B10 showed a binding signal of 1.21 enrichment R.
As for B11, the figure is 0.819 enrichment R; as for B12, 1.34 enrichment R; as for B13, 1.58 enrichment R.
For B14, the binding signal amounted to 1.25 enrichment R.
As for B15, the figure is 0.542 enrichment R; as for B16, 1.05 enrichment R; as for B17, 0.646 enrichment R.
As for B18, the figure is 1.12 enrichment R; as for B19, 0.345 enrichment R; as for B20, 0.55 enrichment R.
As for B21, the figure is 2.23 enrichment R; as for B22, 1.62 enrichment R.
